# Experimental data taken from the supplement of paper PMC8728848.
# The list shows a part of the results.
# B1: AAL (Agrocybe aegerita), Q6WY08 (protein)
# chain: MQGVNIYNISAGTSVDLAAPVTTGDIVTFFSSALNLNAGAGNPNNTTLNLFAENGAYLLHIAHRLQENVIIFNSRQPDGPWLVEQRVSDVANQFAGIDGKAMVTVFDHGDKYQVVINEKTVIQYTKQISGLTLSLSYNATEETSIFSTVVEAVTYTGLALEHHHHHH
# What was measured:
# Assay in all cases: glycan array binding signal (z-score within array); higher = stronger binding
# Settings in all cases: glycan notation: IUPAC condensed, linker removed; mutation: F63H
# [1] = biological target: GlcNAc(b1-3)Gal(b1-3)GalNAc
# Procedure, shortened: (§1)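 Glycan array data were curated from 3228 arrays in the Consortium for Functional Glycomics database and kept only where the protein sequence was available. Glycan names were converted to IUPAC-condensed notation, and columns mapping to the same glycan were averaged. The binding signal is a within-array Z-score, averaged across arrays of the same protein sequence at different concentrations or buffers and across linkers. Negative Z-scores can be read as non-binding.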
# GlcNAc(b1-3)Gal(b1-4)Glc = biological target: GlcNAc(b1-3)Gal(b1-4)Glc
# Procedure, shortened: as §1
# [2] = biological target: GlcNAc(b1-3)Gal(b1-4)GlcNAc
# Procedure, shortened: as §1
# [3] = biological target: GlcNAc(b1-3)Gal(b1-4)GlcNAc(b1-2)Man(a1-3)[GlcNAc(b1-3)Gal(b1-4)GlcNAc(b1-2)Man(a1-6)]Man(b1-4)GlcNAc(b1-4)GlcNAc
# Procedure, shortened: as §1
# [4] = biological target: GlcNAc(b1-3)Gal(b1-4)GlcNAc(b1-2)Man(a1-3)[GlcNAc(b1-3)Gal(b1-4)GlcNAc(b1-2)Man(a1-6)]Man(b1-4)GlcNAc(b1-4)[Fuc(a1-6)]GlcNAc
# Procedure, shortened: as §1
# [5] = biological target: GlcNAc(b1-3)Gal(b1-4)GlcNAc(b1-2)[GlcNAc(b1-3)Gal(b1-4)GlcNAc(b1-6)]Man(a1-6)[GlcNAc(b1-3)Gal(b1-4)GlcNAc(b1-2)Man(a1-3)]Man(b1-4)GlcNAc(b1-4)GlcNAc
# Procedure, shortened: as §1
# [6] = biological target: GlcNAc(b1-3)Gal(b1-4)GlcNAc(b1-3)Gal(b1-4)GlcNAc
# Procedure, shortened: as §1
# [7] = biological target: GlcNAc(b1-3)Gal(b1-4)GlcNAc(b1-3)Gal(b1-4)GlcNAc(b1-2)Man(a1-3)[GlcNAc(b1-3)Gal(b1-4)GlcNAc(b1-3)Gal(b1-4)GlcNAc(b1-2)Man(a1-6)]Man(b1-4)GlcNAc(b1-4)GlcNAc
# Procedure, shortened: as §1
# [8] = biological target: GlcNAc(b1-3)Gal(b1-4)GlcNAc(b1-3)Gal(b1-4)GlcNAc(b1-2)Man(a1-3)[GlcNAc(b1-3)Gal(b1-4)GlcNAc(b1-3)Gal(b1-4)GlcNAc(b1-2)Man(a1-6)]Man(b1-4)GlcNAc(b1-4)[Fuc(a1-6)]GlcNAc
# Procedure, shortened: as §1
# [9] = biological target: GlcNAc(b1-3)Gal(b1-4)GlcNAc(b1-3)Gal(b1-4)GlcNAc(b1-2)[GlcNAc(b1-3)Gal(b1-4)GlcNAc(b1-3)Gal(b1-4)GlcNAc(b1-6)]Man(a1-6)[GlcNAc(b1-3)Gal(b1-4)GlcNAc(b1-3)Gal(b1-4)GlcNAc(b1-2)Man(a1-3)]Man(b1-4)GlcNAc(b1-4)[Fuc(a1-6)]GlcNAc
# Procedure, shortened: as §1
# [10] = biological target: GlcNAc(b1-3)Gal(b1-4)GlcNAc(b1-3)Gal(b1-4)GlcNAc(b1-3)Gal(b1-4)GlcNAc(b1-2)Man(a1-3)[GlcNAc(b1-3)Gal(b1-4)GlcNAc(b1-3)Gal(b1-4)GlcNAc(b1-3)Gal(b1-4)GlcNAc(b1-2)Man(a1-6)]Man(b1-4)GlcNAc(b1-4)GlcNAc
# Procedure, shortened: as §1
# [11] = biological target: GlcNAc(b1-3)Gal(b1-4)GlcNAc(b1-3)Gal(b1-4)GlcNAc(b1-3)Gal(b1-4)GlcNAc(b1-2)Man(a1-3)[GlcNAc(b1-3)Gal(b1-4)GlcNAc(b1-3)Gal(b1-4)GlcNAc(b1-3)Gal(b1-4)GlcNAc(b1-2)Man(a1-6)]Man(b1-4)GlcNAc(b1-4)[Fuc(a1-6)]GlcNAc
# Procedure, shortened: as §1
# [12] = biological target: GlcNAc(b1-3)Gal(b1-4)GlcNAc(b1-3)Gal(b1-4)GlcNAc(b1-3)Gal(b1-4)GlcNAc(b1-2)[GlcNAc(b1-3)Gal(b1-4)GlcNAc(b1-3)Gal(b1-4)GlcNAc(b1-3)Gal(b1-4)GlcNAc(b1-6)]Man(a1-6)[GlcNAc(b1-3)Gal(b1-4)GlcNAc(b1-3)Gal(b1-4)GlcNAc(b1-3)Gal(b1-4)GlcNAc(b1-2)Man(a1-3)]Man(b1-4)GlcNAc(b1-4)[Fuc(a1-6)]GlcNAc
# Procedure, shortened: as §1
# [13] = biological target: GlcNAc(b1-3)Gal(b1-4)GlcNAc(b1-3)Gal(b1-4)GlcNAc(b1-3)Gal(b1-4)GlcNAc(b1-3)Gal(b1-4)GlcNAc(b1-2)Man(a1-3)[GlcNAc(b1-3)Gal(b1-4)GlcNAc(b1-3)Gal(b1-4)GlcNAc(b1-3)Gal(b1-4)GlcNAc(b1-3)Gal(b1-4)GlcNAc(b1-2)Man(a1-6)]Man(b1-4)GlcNAc(b1-4)GlcNAc
# Procedure, shortened: as §1
# [14] = biological target: GlcNAc(b1-3)Gal(b1-4)GlcNAc(b1-3)Gal(b1-4)GlcNAc(b1-3)Gal(b1-4)GlcNAc(b1-3)Gal(b1-4)GlcNAc(b1-2)Man(a1-3)[GlcNAc(b1-3)Gal(b1-4)GlcNAc(b1-3)Gal(b1-4)GlcNAc(b1-3)Gal(b1-4)GlcNAc(b1-3)Gal(b1-4)GlcNAc(b1-2)Man(a1-6)]Man(b1-4)GlcNAc(b1-4)[Fuc(a1-6)]GlcNAc
# Procedure, shortened: as §1
# [15] = biological target: GlcNAc(b1-3)Gal(b1-4)GlcNAc(b1-3)Gal(b1-4)GlcNAc(b1-3)Gal(b1-4)GlcNAc(b1-3)Gal(b1-4)GlcNAc(b1-2)[GlcNAc(b1-3)Gal(b1-4)GlcNAc(b1-3)Gal(b1-4)GlcNAc(b1-3)Gal(b1-4)GlcNAc(b1-3)Gal(b1-4)GlcNAc(b1-6)]Man(a1-6)[GlcNAc(b1-3)Gal(b1-4)GlcNAc(b1-3)Gal(b1-4)GlcNAc(b1-3)Gal(b1-4)GlcNAc(b1-3)Gal(b1-4)GlcNAc(b1-2)Man(a1-3)]Man(b1-4)GlcNAc(b1-4)[Fuc(a1-6)]GlcNAc
# Procedure, shortened: as §1
# [16] = biological target: GlcNAc(b1-3)Gal(b1-4)GlcNAc(b1-3)Gal(b1-4)GlcNAc(b1-3)GalNAc
# Procedure, shortened: as §1
# [17] = biological target: GlcNAc(b1-3)Gal(b1-4)GlcNAc(b1-3)GalNAc
# Procedure, shortened: as §1
# [18] = biological target: GlcNAc(b1-3)Gal(b1-4)GlcNAc(b1-3)[GlcNAc(b1-3)Gal(b1-4)GlcNAc(b1-3)]GalNAc
# Procedure, shortened: as §1
# [19] = biological target: GlcNAc(b1-3)Gal(b1-4)GlcNAc(b1-6)[Gal(b1-3)]GalNAc
# Procedure, shortened: as §1
# [20] = biological target: GlcNAc(b1-3)Gal(b1-4)GlcNAc(b1-6)[GlcNAc(b1-3)Gal(b1-3)]GalNAc
# Procedure, shortened: as §1
# [21] = biological target: GlcNAc(b1-3)Gal(b1-4)GlcNAc(b1-6)[GlcNAc(b1-3)]Gal(b1-4)GlcNAc
# Procedure, shortened: as §1
# GlcNAc(b1-3)GalNAc = biological target: GlcNAc(b1-3)GalNAc
# Procedure, shortened: as §1
# GlcNAc(b1-3)Man = biological target: GlcNAc(b1-3)Man
# Procedure, shortened: as §1
# [22] = biological target: GlcNAc(b1-3)[GlcNAc(b1-4)][GlcNAc(b1-6)]GlcNAc
# Procedure, shortened: as §1
# [23] = biological target: GlcNAc(b1-3)[GlcNAc(b1-6)]Gal(b1-4)GlcNAc
# Procedure, shortened: as §1
# [24] = biological target: GlcNAc(b1-3)[GlcNAc(b1-6)]GalNAc
# Procedure, shortened: as §1
# [25] = biological target: GlcNAc(b1-4)Gal(b1-4)GlcNAc
# Procedure, shortened: as §1
# GlcNAc(b1-4)GlcNAc = biological target: GlcNAc(b1-4)GlcNAc
# Procedure, shortened: as §1
# [26] = biological target: GlcNAc(b1-4)GlcNAc(b1-4)GlcNAc
# Procedure, shortened: as §1
# [27] = biological target: GlcNAc(b1-4)GlcNAc(b1-4)GlcNAc(b1-4)GlcNAc(b1-4)GlcNAc
# Procedure, shortened: as §1
# [28] = biological target: GlcNAc(b1-4)GlcNAc(b1-4)GlcNAc(b1-4)GlcNAc(b1-4)GlcNAc(b1-4)GlcNAc
# Procedure, shortened: as §1
# [29] = biological target: GlcNAc(b1-4)[GlcNAc(b1-6)]GalNAc
# Procedure, shortened: as §1
# [30] = biological target: GlcNAc(b1-6)Gal(b1-4)GlcNAc
# Procedure, shortened: as §1
# GlcNAc(b1-6)GalNAc = biological target: GlcNAc(b1-6)GalNAc
# Procedure, shortened: as §1
# [31] = biological target: GlcNAc6S(b1-3)Gal(b1-4)GlcNAc
# Procedure, shortened: as §1
# Kdn(a2-3)Gal(b1-3)GalNAc = biological target: Kdn(a2-3)Gal(b1-3)GalNAc
# Procedure, shortened: as §1
# Kdn(a2-3)Gal(b1-3)GlcNAc = biological target: Kdn(a2-3)Gal(b1-3)GlcNAc
# Procedure, shortened: as §1
# Kdn(a2-3)Gal(b1-4)Glc = biological target: Kdn(a2-3)Gal(b1-4)Glc
# Procedure, shortened: as §1
# Kdn(a2-3)Gal(b1-4)GlcNAc = biological target: Kdn(a2-3)Gal(b1-4)GlcNAc
# Procedure, shortened: as §1
# [32] = biological target: Kdn(a2-3)Gal(b1-4)[Fuc(a1-3)]GlcNAc
# Procedure, shortened: as §1
# Kdn(a2-6)Gal(b1-4)GlcNAc = biological target: Kdn(a2-6)Gal(b1-4)GlcNAc
# Procedure, shortened: as §1
# [33] = biological target: Man(a1-2)Man(a1-2)Man(a1-3)Man
# Procedure, shortened: as §1
# [34] = biological target: Man(a1-2)Man(a1-2)Man(a1-6)[Man(a1-3)]Man
# Procedure, shortened: as §1
# Man(a1-2)Man(a1-3)Man = biological target: Man(a1-2)Man(a1-3)Man
# Procedure, shortened: as §1
binder,measurement,setting,value
B1,glycan array binding signal (z-score),[1],0.116
same,glycan array binding signal (z-score),GlcNAc(b1-3)Gal(b1-4)Glc,1.42
same,glycan array binding signal (z-score),[2],0.152
same,glycan array binding signal (z-score),[3],-0.1
same,glycan array binding signal (z-score),[4],-0.15
same,glycan array binding signal (z-score),[5],-0.481
same,glycan array binding signal (z-score),[6],-0.158
same,glycan array binding signal (z-score),[7],0.222
same,glycan array binding signal (z-score),[8],0.391
same,glycan array binding signal (z-score),[9],0.909
same,glycan array binding signal (z-score),[10],0.262
same,glycan array binding signal (z-score),[11],0.906
same,glycan array binding signal (z-score),[12],0.893
same,glycan array binding signal (z-score),[13],0.027
same,glycan array binding signal (z-score),[14],0.444
same,glycan array binding signal (z-score),[15],0.818
same,glycan array binding signal (z-score),[16],-0.233
same,glycan array binding signal (z-score),[17],-0.029
same,glycan array binding signal (z-score),[18],0.58
same,glycan array binding signal (z-score),[19],-0.371
same,glycan array binding signal (z-score),[20],-0.169
same,glycan array binding signal (z-score),[21],-0.04
same,glycan array binding signal (z-score),GlcNAc(b1-3)GalNAc,0.053
same,glycan array binding signal (z-score),GlcNAc(b1-3)Man,-0.511
same,glycan array binding signal (z-score),[22],-0.568
same,glycan array binding signal (z-score),[23],-0.322
same,glycan array binding signal (z-score),[24],-0.374
same,glycan array binding signal (z-score),[25],-0.34
same,glycan array binding signal (z-score),GlcNAc(b1-4)GlcNAc,0.059
same,glycan array binding signal (z-score),[26],-0.3
same,glycan array binding signal (z-score),[27],0.019
same,glycan array binding signal (z-score),[28],-0.297
same,glycan array binding signal (z-score),[29],-0.448
same,glycan array binding signal (z-score),[30],-0.101
same,glycan array binding signal (z-score),GlcNAc(b1-6)GalNAc,-0.101
same,glycan array binding signal (z-score),[31],0.168
same,glycan array binding signal (z-score),Kdn(a2-3)Gal(b1-3)GalNAc,0.108
same,glycan array binding signal (z-score),Kdn(a2-3)Gal(b1-3)GlcNAc,-0.066
same,glycan array binding signal (z-score),Kdn(a2-3)Gal(b1-4)Glc,0.283
same,glycan array binding signal (z-score),Kdn(a2-3)Gal(b1-4)GlcNAc,-0.48
same,glycan array binding signal (z-score),[32],-0.199
same,glycan array binding signal (z-score),Kdn(a2-6)Gal(b1-4)GlcNAc,-0.128
same,glycan array binding signal (z-score),[33],-0.069
same,glycan array binding signal (z-score),[34],-0.576
same,glycan array binding signal (z-score),Man(a1-2)Man(a1-3)Man,-0.172
